At least one peptide structure holds a part that was inferred or is arguable (an end, a ring closure or a residue). Numbered stars: 1 amine (or outer) side, 2 acyl side, 3 side chain; on linkers, the order of the positions; unused ones are H or OH. Bridge positions count the residues as written; N and C are the ends. Square brackets hold non-standard residues; d marks the D form. Side chains are listed from the residue outwards. Peptide text beside a SMILES is read from it. * marks the point of attachment. C20 diacid = O=C(O)CCCCCCCCCCCCCCCCCCC(=O)*; C18 diacid = O=C(O)CCCCCCCCCCCCCCCCC(=O)*; γGlu = O=C(O)[C@H](CCC(=O)[*:2])N[*:1]; Hyp = O=C(O)[C@@H]1C[C@@H](O)CN1; AEEA = NCCOCCOCC(=O)O
Experiment: Freeze-thaw stability of derivatives (freeze-thaw yield by liquid chromatography)
Format: physicochemical
Conditions: for Dissolution property: appearance after dissolution at 0.2 mg/ml in 20 mM phosphate buffer solution (PB) (pH 7.0); for Freeze storage property: appearance after overnight storage at −20° C. and thawing to room temperature, 0.2 mg/ml in 20 mM PB (pH 7.0); for Freeze storage yield: concentration of polypeptide after freezing and thawing / concentration before, by liquid chromatography, −20° C. overnight
Method in brief: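 Freeze-thaw yield is the ratio of peptide concentration after versus before one overnight −20° C freeze and room-temperature thaw, both quantified by RP-HPLC of supernatant after centrifugation. Samples were 0.2 mg/ml freeze-dried derivative in 20 mM PB, pH 7.0.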

SMILES | Dissolution property | Freeze storage property | Freeze storage yield
CC[C@H](C)[C@H](NC(=O)[C@@H]1CCCN1C(=O)CNC(=O)[C@H](CC(C)C)NC(=O)[C@H](CC(N)=O)NC(=O)[C@H](CC(N)=O)NC(=O)[C@H](CO)NC(=O)[C@H](CCCCNC(=O)CC[C@H](NC(=O)CCCCCCCCCCCCCCCCC(=O)O)C(=O)O)NC(=O)[C@H](Cc1c[nH]cn1)NC(=O)[C@H](CCCNC(=N)N)NC(=O)[C@H](CC(C)C)NC(=O)[C@H](Cc1ccccc1)NC(=O)[C@H](CC(=O)O)NC(=O)[C@H](C)NC(=O)[C@H](CC(C)C)NC(=O)[C@H](CCCNC(=N)N)NC(=O)[C@H](CCC(N)=O)NC(=O)[C@@H](NC(=O)[C@H](C)NC(=O)[C@@H]1CSSC[C@H](NC(=O)[C@@H](N)CCCNC(=N)N)C(=O)N[C@@H](CC(N)=O)C(=O)N[C@@H]([C@@H](C)O)C(=O)N[C@@H](C)C(=O)N[C@@H]([C@@H](C)O)C(=O)N1)[C@@H](C)O)C(=O)N[C@@H](CC(C)C)C(=O)N1CCC[C@H]1C(=O)N1CCC[C@H]1C(=O)N[C@H](C(=O)N[C@@H](CC(N)=O)C(=O)N[C@H](C(=O)NCC(=O)N[C@@H](CO)C(=O)N[C@@H](CC(N)=O)C(=O)N[C@H](C(=O)N1C[C@H](O)C[C@H]1C(N)=O)[C@@H](C)O)C(C)C)[C@@H](C)O [PD100] (H-RCNTATCATQRLADFLRHK([γGlu-C18 diacid])SNNLGPILPPTNVGSNT[Hyp]-NH2; disulfide 2-7) | Clear | Clear | 102.97%
CC[C@H](C)[C@H](NC(=O)[C@@H]1CCCN1C(=O)CNC(=O)[C@H](CC(C)C)NC(=O)[C@H](CC(N)=O)NC(=O)[C@H](CC(N)=O)NC(=O)[C@H](CO)NC(=O)[C@H](CCCCNC(=O)COCCOCCNC(=O)COCCOCCNC(=O)CC[C@H](NC(=O)CCCCCCCCCCCCCCCCC(=O)O)C(=O)O)NC(=O)[C@H](Cc1c[nH]cn1)NC(=O)[C@H](CCCNC(=N)N)NC(=O)[C@H](CC(C)C)NC(=O)[C@H](Cc1ccccc1)NC(=O)[C@H](CC(=O)O)NC(=O)[C@H](C)NC(=O)[C@H](CC(C)C)NC(=O)[C@H](CCCNC(=N)N)NC(=O)[C@H](CCC(N)=O)NC(=O)[C@@H](NC(=O)[C@H](C)NC(=O)[C@@H]1CSSC[C@H](NC(=O)[C@@H](N)CCCNC(=N)N)C(=O)N[C@@H](CC(N)=O)C(=O)N[C@@H]([C@@H](C)O)C(=O)N[C@@H](C)C(=O)N[C@@H]([C@@H](C)O)C(=O)N1)[C@@H](C)O)C(=O)N[C@@H](CC(C)C)C(=O)N1CCC[C@H]1C(=O)N1CCC[C@H]1C(=O)N[C@H](C(=O)N[C@@H](CC(N)=O)C(=O)N[C@H](C(=O)NCC(=O)N[C@@H](CO)C(=O)N[C@@H](CC(N)=O)C(=O)N[C@H](C(=O)N1C[C@H](O)C[C@H]1C(N)=O)[C@@H](C)O)C(C)C)[C@@H](C)O [PD101] (H-RCNTATCATQRLADFLRHK([AEEA-AEEA-γGlu-C18 diacid])SNNLGPILPPTNVGSNT[Hyp]-NH2; disulfide 2-7) | Clear | Clear | 97.67%
CC[C@H](C)[C@H](NC(=O)[C@H](CCCCNC(=O)CC[C@H](NC(=O)CCCCCCCCCCCCCCCCCCC(=O)O)C(=O)O)NC(=O)CNC(=O)[C@H](CC(C)C)NC(=O)[C@H](CC(N)=O)NC(=O)[C@H](CC(N)=O)NC(=O)[C@H](CO)NC(=O)[C@H](CO)NC(=O)[C@H](Cc1c[nH]cn1)NC(=O)[C@H](CCCNC(=N)N)NC(=O)[C@H](CC(C)C)NC(=O)[C@H](Cc1ccccc1)NC(=O)[C@H](CC(=O)O)NC(=O)[C@H](C)NC(=O)[C@H](CC(C)C)NC(=O)[C@H](CCCNC(=N)N)NC(=O)[C@H](CCC(N)=O)NC(=O)[C@@H](NC(=O)[C@H](C)NC(=O)[C@@H]1CSSC[C@H](NC(=O)[C@@H](N)CCCNC(=N)N)C(=O)N[C@@H](CC(N)=O)C(=O)N[C@@H]([C@@H](C)O)C(=O)N[C@@H](C)C(=O)N[C@@H]([C@@H](C)O)C(=O)N1)[C@@H](C)O)C(=O)N[C@@H](CC(C)C)C(=O)N1CCC[C@H]1C(=O)N1CCC[C@H]1C(=O)N[C@H](C(=O)N[C@@H](CC(N)=O)C(=O)N[C@H](C(=O)NCC(=O)N[C@@H](CO)C(=O)N[C@@H](CC(N)=O)C(=O)N[C@H](C(=O)N1C[C@H](O)C[C@H]1C(N)=O)[C@@H](C)O)C(C)C)[C@@H](C)O [PD102] (H-RCNTATCATQRLADFLRHSSNNLGK([γGlu-C20 diacid])ILPPTNVGSNT[Hyp]-NH2; disulfide 2-7) | Clear | Clear | 97.43%
CC[C@H](C)[C@H](NC(=O)[C@H](CCCCNC(=O)CC[C@H](NC(=O)CCCCCCCCCCCCCCCCC(=O)O)C(=O)O)NC(=O)CNC(=O)[C@H](CC(C)C)NC(=O)[C@H](CC(N)=O)NC(=O)[C@H](CC(N)=O)NC(=O)[C@H](CO)NC(=O)[C@H](CO)NC(=O)[C@H](Cc1c[nH]cn1)NC(=O)[C@H](CCCNC(=N)N)NC(=O)[C@H](CC(C)C)NC(=O)[C@H](Cc1ccccc1)NC(=O)[C@H](CC(=O)O)NC(=O)[C@H](C)NC(=O)[C@H](CC(C)C)NC(=O)[C@H](CCCNC(=N)N)NC(=O)[C@H](CCC(N)=O)NC(=O)[C@@H](NC(=O)[C@H](C)NC(=O)[C@@H]1CSSC[C@H](NC(=O)[C@@H](N)CCCNC(=N)N)C(=O)N[C@@H](CC(N)=O)C(=O)N[C@@H]([C@@H](C)O)C(=O)N[C@@H](C)C(=O)N[C@@H]([C@@H](C)O)C(=O)N1)[C@@H](C)O)C(=O)N[C@@H](CC(C)C)C(=O)N1CCC[C@H]1C(=O)N1CCC[C@H]1C(=O)N[C@H](C(=O)N[C@@H](CC(N)=O)C(=O)N[C@H](C(=O)NCC(=O)N[C@@H](CO)C(=O)N[C@@H](CC(N)=O)C(=O)N[C@H](C(=O)N1C[C@H](O)C[C@H]1C(N)=O)[C@@H](C)O)C(C)C)[C@@H](C)O [PD104] (H-RCNTATCATQRLADFLRHSSNNLGK([γGlu-C18 diacid])ILPPTNVGSNT[Hyp]-NH2; disulfide 2-7) | Clear | Clear | 99.05%
CC[C@H](C)[C@H](NC(=O)[C@H](CCCCNC(=O)COCCOCCNC(=O)COCCOCCNC(=O)CC[C@H](NC(=O)CCCCCCCCCCCCCCCCC(=O)O)C(=O)O)NC(=O)CNC(=O)[C@H](CC(C)C)NC(=O)[C@H](CC(N)=O)NC(=O)[C@H](CC(N)=O)NC(=O)[C@H](CO)NC(=O)[C@H](CO)NC(=O)[C@H](Cc1c[nH]cn1)NC(=O)[C@H](CCCNC(=N)N)NC(=O)[C@H](CC(C)C)NC(=O)[C@H](Cc1ccccc1)NC(=O)[C@H](CC(=O)O)NC(=O)[C@H](C)NC(=O)[C@H](CC(C)C)NC(=O)[C@H](CCCNC(=N)N)NC(=O)[C@H](CCC(N)=O)NC(=O)[C@@H](NC(=O)[C@H](C)NC(=O)[C@@H]1CSSC[C@H](NC(=O)[C@@H](N)CCCNC(=N)N)C(=O)N[C@@H](CC(N)=O)C(=O)N[C@@H]([C@@H](C)O)C(=O)N[C@@H](C)C(=O)N[C@@H]([C@@H](C)O)C(=O)N1)[C@@H](C)O)C(=O)N[C@@H](CC(C)C)C(=O)N1CCC[C@H]1C(=O)N1CCC[C@H]1C(=O)N[C@H](C(=O)N[C@@H](CC(N)=O)C(=O)N[C@H](C(=O)NCC(=O)N[C@@H](CO)C(=O)N[C@@H](CC(N)=O)C(=O)N[C@H](C(=O)N1C[C@H](O)C[C@H]1C(N)=O)[C@@H](C)O)C(C)C)[C@@H](C)O [PD105] (H-RCNTATCATQRLADFLRHSSNNLGK([AEEA-AEEA-γGlu-C18 diacid])ILPPTNVGSNT[Hyp]-NH2; disulfide 2-7) | Clear | Clear | 111.06%

From patent publication US20260166128A1, “HUMAN AMYLIN ANALOG, AND DERIVATIVE THEREOF AND USE THEREOF” (priority 2022, published 2026)
